The whole screen tested about 150,000 compounds, of which about 540 (0.36%) showed an effect of 50% or more. Some of the results follow.
Each molecule was assayed on Plasmodium falciparum (assay: Primary screen in NF54 nanoGlo assay, in single point, at 2uM, 72h; a lower Z score goes with more inhibition). Conditions: timepoint 72 hour.
Format: functional, Erythrocyte

| SMILES | % Inhibition | Z score |
| --- | --- | --- |
| CC(C)c1nc(NCc2ccnc(N3CCOCC3)c2)c2cc[nH]c2n1 | 6% | -1.09 |
| CC1(C)CC(NCCC2(O)CCCC2)CC(C)(C)N1 | -11% | 1.85 |
| CC1CC(C)CC(CCN2CCN(CCN3CCCOCC3)CC2)C1 (stereo not given) | 7% | -1.05 |
| COCCN1CCC(Nc2cc(N3CCC(C)(O)CC3)ncn2)CC1 | 3% | -0.58 |
| OCC1CC(CN2CCOCC2)CN(Cc2ccc(-c3ccccc3)cc2)C1 (stereo not given) | -2% | 0.32 |
| CCN(Cc1ccc2[nH]ccc2c1)Cc1ccnn1CC | 7% | -1.3 |
| O=C(NC1CCN(CCOc2ccc(Cl)cc2)CC1)c1c[nH]c2ccncc2c1=O | 94% | -14.22 |
| COC[C@H](C)Nc1ccccc1NC(=O)c1ncn2ccc(C)cc12 | -1% | 0.21 |
| O=C1C[C@H](CNc2ncnc3[nH]ccc23)CN1C1CCCC1 | 5% | -0.82 |
| CN(Cc1ccon1)Cc1ccc(C#CC(C)(C)O)s1 | -3% | 0.49 |
| C[C@H](NC1CCC2(CCNCC2)CC1)c1nc(-c2ccccn2)no1 | -9% | 1.56 |
| c1ccc(-c2nccn2CCCNc2ncnc3cnccc23)cc1 | -6% | 0.9 |
| COCCN1CC[C@H](CNc2nc(C)nc3c2CCNCC3)C1 | -3% | 0.48 |
| NS(=O)(=O)c1ccc(C(=O)N2CCN(c3cc(Nc4ccccn4)ncn3)CC2)cc1 | -9% | 1.61 |
| Cc1cc2nc(C(C)C)cc(NC3COCC3N3CCOCC3)n2n1 (stereo not given) | -4% | 0.83 |
| COc1ccccc1CN(Cc1ccc2[nH]ccc2c1)C1CC1 | -1% | 0.26 |
| Cn1nc(CN2CCCCNC(=O)[C@@H]3C[C@@H](CN3)N(C(=O)c3ccccc3)CCC2)c2c(Cl)cccc21 | -10% | 2.1 |
| O=C(NCCc1ccns1)c1ccc(OC(F)F)cn1 | -3% | 0.61 |
| COc1ccc(N2CCC(N3CCC(CCC(=O)NCCN(C)C)CC3)CC2)cc1 | -3% | 0.55 |
| O=C(N1CCN(c2nccc(-c3ccc(-n4ccnc4)cc3)n2)CC1)C(F)(F)C(F)(F)C(F)(F)F | 11% | -1.94 |
| FC(F)(F)CCCN(Cc1cccnc1)CC1CCN(C2CCCC2)CC1 | -8% | 1.32 |
| Cc1ccc(-c2cccc(C(=O)N3CCN(CCN4CCCC4)CC3)c2)o1 | 8% | -1.62 |

| SMILES | % Inhibition | Z score |
| --- | --- | --- |
| CCOC(=O)C(=O)N1CCN(C(=O)c2ccc3ncnn3c2)CC1 | 0% | -0.01 |
| OCCN1CCN(C2CCN(c3ccccc3)CC2)C[C@@H](O)C1 | -4% | 0.68 |
| CC(=O)N1CCN(Cc2cccc(-c3cnn4cc(Cl)ccc34)c2)CC1 | -4% | 0.58 |
| Cc1nonc1CNS(=O)(=O)c1ccc(-c2cc(C(F)(F)F)[nH]n2)o1 | -4% | 0.61 |
| O=c1cc(N2CCN(C3CCN(Cc4ccco4)CC3)CC2)c(-c2ccccc2)n[nH]1 | 2% | -0.48 |
| CN(C)C(=O)c1ccc(N2CCC(NCCN3CCC[C@H](c4ccccc4)C3)CC2)cc1 | -4% | 0.7 |
| CC(C)N1CCN(c2ccc(-c3ccc4[nH]nc(N)c4c3)cc2)CC1 | -9% | 1.66 |
| Fc1cc(-c2noc([C@@H](c3ccccc3)C3CC3)n2)ccc1OC1CCNCC1 | -5% | 1.02 |
| Cn1ccn2ncc(C(=O)NCC3CCN(C(=O)c4cc5ccccc5[nH]4)CC3)c12 | -9% | 1.37 |
| CNc1cc([C@H]2C[C@@H](NC3CC(C)(C)NC(C)(C)C3)C2)ncn1 | 11% | -1.95 |
| CC(C)Oc1cccc(-c2cc(C3CCNCC3)c(C#N)c(N)n2)c1 | -7% | 1.08 |
| CC1CC(CNc2ccnc(NCC3CCOC(C)C3)n2)CCO1 (stereo not given) | 20% | -3.06 |
| CCCN1CCC(N2CCN(Cc3cn(C)nc3C(F)F)CC2)CC1 | 0% | 0.08 |
| Cc1c(C(=O)NC2CCCCC2)nnn1-c1cccc2c1CCN(c1ccc(C#N)cn1)C2 | 4% | -0.7 |
| Cc1sc(CNC(=O)c2cccc3ncccc23)nc1-c1ccc(Cl)cc1 | -5% | 0.92 |
| Cc1nc2n(n1)CC(NC(=O)N1CCC(Nc3ccc4nccn4n3)C1)CC2 (stereo not given) | -7% | 1.27 |
| O=C(c1cccc(-c2ccc3c(c2)OC(F)(F)O3)c1)N1CCCNCC1 | 10% | -2.07 |
| O=C(Nc1ccc(N2CCC(NCc3cc4ccccc4[nH]3)CC2)cc1)C1CCCC1 | -5% | 0.8 |
| C[C@@H](C(=O)OC(C)(C)C)N(C)c1ccn(C)n1 | -3% | 0.51 |
| CCc1ncc(-c2c(-c3ccccc3)ncn2CCCCc2ccccn2)cn1 | -12% | 2.32 |
| C[C@@H](C(=O)N1CCCN(c2cc(N)ncn2)CC1)N1CCCCCC1 | 7% | -1.41 |
| CCC1CN(c2ccc(C#N)c(N3CCN(CC(C)O)C(CC)C3)n2)CCN1CC(C)O (stereo not given) | -2% | 0.44 |

| SMILES | % Inhibition | Z score |
| --- | --- | --- |
| CC(C)Oc1ccc(Cl)cc1CN1CC(O)C(Cc2ccnc3ccccc23)C1 (stereo not given) | 0% | -0.05 |
| COc1ccc2ncc(Cl)c(N3CCC(NCCO)CC3)c2c1 | 0% | 0.08 |
| O=C(c1cc2cc(F)ccc2[nH]1)N1CCN(c2ncnc3sccc23)CC1 | 0% | -0.03 |
| COCCO[C@H]1CCN(C(=O)c2ccc3nnn(C)c3c2)C1 | 0% | -0.06 |
| CN(C)C1CCN(c2cc(N3CCC(N(C)C)C3)ncn2)C1 (stereo not given) | -2% | 0.32 |
| Cc1cccc2ncnc(N[C@H]3Cc4cncn4C3)c12 | -6% | 1.3 |
| CCCN(CC(F)F)C(=O)c1sccc1S(=O)(=O)C(F)F | 6% | -1.16 |
| Cc1ccccc1[C@H]1CCN(CCNc2nc(N)nc3[nH]cnc23)C1 | 8% | -1.22 |
| COc1nsc(C(=O)N(Cc2ccc(F)cc2)C(C)C)c1Br | 2% | -0.35 |
| Cc1cc(NCc2cccc(Cn3cncn3)c2)nc2c(C(C)C)cccc12 | -4% | 0.66 |
| O=C(NCc1cc2cc(F)ccc2s1)c1c[nH]c2ccccc2c1=O | 1% | -0.22 |
| COc1cccc(-c2cc(C(=O)N3CCN(CCn4ccnc4)CC3)[nH]n2)c1 | -2% | 0.5 |
| COc1ccc(Nc2cc(C)nc(NCCNC(=O)COc3nccc(C)n3)n2)cc1 | 5% | -0.96 |
| O=C(NCc1ccc2ncccc2c1)N1CCN(CC2CCOCC2)CC1 | -14% | 2.81 |
| CNC(=O)CCc1cccc(NC(=O)NC2(COC)CCCC2)c1 | 1% | -0.2 |
| O=C(c1cncc(N[C@H]2CCCN(CC3CCCCC3)C2)n1)N1CCCC1 | -1% | 0.19 |
| Fc1ccc(C2(c3nc(-c4ncccn4)no3)CCC2)c(F)c1 | 8% | -1.21 |
| C[C@H](NC(=O)CN(C)C1CCNCC1)c1nc(-c2ccncc2)no1 | -11% | 2.46 |
| COc1cc(CC(=O)N2CC3(CN(C)C(=O)O3)C2)ccn1 | -9% | 1.33 |
| Nc1nnc(CCCNc2nccc(-c3ccncc3)n2)s1 | -9% | 1.91 |
| CC(O)C1CCN(c2cc(N3Cc4ccccc4-c4ccccc4C3)ncn2)C1 (stereo not given) | 2% | -0.28 |

Source: ChEMBL document CHEMBL5308541, “MAIP: An Open-Source Tool to Enrich High-Throughput Screening Output and Identify Novel, Druglike Molecules with Antimalarial Activity” (ACS Med Chem Lett, 2023)
